From the RNAGym collection of RNA variant scans (doi:10.7554/elife.90254)
The source gives no read counts; variants with many changes may rest on few reads.

B1: LINE1-mini (parent)
chain: GGCAGAGCUCAACACAGCGUGGCAAAGUGGCUGUGGCUAGACUGCC

Variants of: B1
Test: self-cleavage, relative activity (ratio to wild type); higher = more cleavage; in vitro, sequencing; the parent is a self-cleaving ribozyme
For G5U A14C C15A C18A G44A C45U, the self-cleavage was 0.01.
G5U A14C C18U gave a self-cleavage of 0.05.
In the case of G5U A14C G19C C23U A25U, the self-cleavage is reported as 0.01.
Variant G5U A14C G30U C45A has a self-cleavage of 0.08.
G5U A14C U34A G44A C46A showed a self-cleavage of 0.06.
In the case of G5U A14G A16U A39G, the self-cleavage is reported as 0.07.
With G5U A14G A24G the self-cleavage was 0.
For G5U A14G A25U A26G, the self-cleavage was 0.08.
For G5U A14G G19U G27U, the self-cleavage was 0.13.
In the case of G5U A14G G29U, the self-cleavage is reported as 0.01.
With G5U A14G G33U the self-cleavage was 0.06.
With G5U A14G U20G U38A the self-cleavage was 0.05.
In the case of G5U A14G U32A C42A, the self-cleavage is reported as 0.02.
With G5U A14U A16U C18A G22C A25G U28A the self-cleavage was 0.03.
In the case of G5U A14U A26C C42U, the self-cleavage is reported as 0.08.
Variant G5U A14U A26G has a self-cleavage of 0.02.
G5U A14U A26U G35A G40C gave a self-cleavage of 0.04.
Work on G5U A14U A41G yielded a self-cleavage of 0.06.
Variant G5U A14U G19A has a self-cleavage of 0.26.
G5U A14U G30A U32C C37U showed a self-cleavage of 0.11.
For G5U A16C A25U G33A G40U, the self-cleavage was 0.03.
With G5U A16C C18A C45U the self-cleavage was 0.03.
Variant G5U A16C C18U C31A G40A U43A has a self-cleavage of 0.03.
Work on G5U A16C G35A yielded a self-cleavage of 0.25.
Work on G5U A16C U20G yielded a self-cleavage of 0.01.
Work on G5U A16G C23A yielded a self-cleavage of 0.04.
G5U A16G G17U A25C G33U showed a self-cleavage of 0.01.
G5U A16G G36U showed a self-cleavage of 0.06.
G5U A16U C37U G40C showed a self-cleavage of 0.03.
G5U A16U C42A U43A gave a self-cleavage of 0.01.
Variant G5U A16U C45U has a self-cleavage of 0.02.
For G5U A16U G21A C37A, the self-cleavage was 0.07.
For G5U A16U G22A U38G, the self-cleavage was 0.01.
Variant G5U A16U G35U has a self-cleavage of 0.22.
For G5U A24C A41G, the self-cleavage was 0.03.
G5U A24C G30U A41C gave a self-cleavage of 0.01.
Variant G5U A24G G30A G35U has a self-cleavage of 0.02.
G5U A24G U28C C42G gave a self-cleavage of 0.01.
G5U A24G U38C C42A G44A showed a self-cleavage of 0.35.
G5U A24U C42G showed a self-cleavage of 0.08.
In the case of G5U A24U G29U, the self-cleavage is reported as 0.16.
With G5U A25C C45U the self-cleavage was 0.46.
In the case of G5U A25C C45U C46A, the self-cleavage is reported as 0.04.
With G5U A25C U34A the self-cleavage was 0.
For G5U A25G A26C G36U, the self-cleavage was 0.09.
G5U A25G A39U showed a self-cleavage of 0.04.
In the case of G5U A25G G27C C45U, the self-cleavage is reported as 0.02.
Work on G5U A25G G29U yielded a self-cleavage of 0.04.
In the case of G5U A25U C37U, the self-cleavage is reported as 0.07.
G5U A25U U34A gave a self-cleavage of 0.07.
G5U A26C C37G G40U gave a self-cleavage of 0.07.
For G5U A26C C46A, the self-cleavage was 0.03.
For G5U A26G G27A U28G G30A, the self-cleavage was 0.09.
Work on G5U A26G G33A yielded a self-cleavage of 0.22.
With G5U A26U C31G the self-cleavage was 0.
For G5U A39C A41U U43A C46A, the self-cleavage was 0.09.
Work on G5U A39G A41G yielded a self-cleavage of 0.03.
With G5U A39G C42G the self-cleavage was 0.05.
G5U A39G C45G gave a self-cleavage of 0.09.
With G5U A39G G40C the self-cleavage was 0.01.
Work on G5U A39U A41U yielded a self-cleavage of 0.11.
With G5U A39U C42A the self-cleavage was 0.87.
G5U A41C C45U gave a self-cleavage of 0.09.
For G5U A41U G44C, the self-cleavage was 0.03.
In the case of G5U C8A A11G A14U A16G, the self-cleavage is reported as 0.02.
For G5U C8A A12C, the self-cleavage was 0.01.
G5U C8A A12G showed a self-cleavage of 0.06.
G5U C8A A14U C31G showed a self-cleavage of 0.18.
G5U C8A A39C A41U C46G showed a self-cleavage of 0.31.
For G5U C8A C13A U32A, the self-cleavage was 0.03.
In the case of G5U C8A C13U A16G U20G G36C, the self-cleavage is reported as 0.01.
With G5U C8A C15U A24C the self-cleavage was 0.2.
Work on G5U C8A U38A yielded a self-cleavage of 0.18.
For G5U C8G A12G A24C G30U C42A, the self-cleavage was 0.12.
With G5U C8G A12G G21A C23A A26G C42A C46G the self-cleavage was 0.11.
With G5U C8G A12G G44C the self-cleavage was 0.02.
G5U C8G A24G C46A showed a self-cleavage of 0.21.
G5U C8G C13G A16U G22A showed a self-cleavage of 0.03.
Variant G5U C8G C37A C42A has a self-cleavage of 0.06.
With G5U C8G G21C C23A G36C A41G the self-cleavage was 0.01.
Variant G5U C8G U9C has a self-cleavage of 0.03.
For G5U C8G U32G G35U, the self-cleavage was 0.14.
In the case of G5U C8U A12G G21A C23G, the self-cleavage is reported as 0.03.
Work on G5U C8U A12U G19C G21U C42A yielded a self-cleavage of 0.03.
In the case of G5U C8U A14G A16G G19C C23U, the self-cleavage is reported as 0.07.
G5U C8U A16C G22A showed a self-cleavage of 0.05.
With G5U C8U A24U U28A U34C G40U G44A the self-cleavage was 0.08.
G5U C8U C10U G27C C31G gave a self-cleavage of 0.05.
G5U C8U C13U G40C showed a self-cleavage of 0.03.
With G5U C8U C15A G19U A41C C45A the self-cleavage was 0.16.
In the case of G5U C8U C15G, the self-cleavage is reported as 0.08.
In the case of G5U C8U C45U, the self-cleavage is reported as 0.49.
G5U C8U G19U G44U gave a self-cleavage of 0.1.
G5U C8U G22A G35U G44U gave a self-cleavage of 0.13.
Work on G5U C8U G27C yielded a self-cleavage of 0.23.
G5U C8U G36A showed a self-cleavage of 0.45.
G5U C8U U9A G33A gave a self-cleavage of 0.3.
Work on G5U C8U U32C yielded a self-cleavage of 0.11.
Work on G5U C10A A11C G17U yielded a self-cleavage of 0.02.
In the case of G5U C10A A12C C13U G36A A41G G44U, the self-cleavage is reported as 0.03.
For G5U C10A C15U G17U, the self-cleavage was 0.09.
G5U C10A C18U showed a self-cleavage of 0.03.
Variant G5U C10A C31U G33U has a self-cleavage of 0.02.
Variant G5U C10A G17A G40U has a self-cleavage of 0.03.
Work on G5U C10A G19A G44C yielded a self-cleavage of 0.01.
For G5U C10A G21C, the self-cleavage was 0.04.
For G5U C10A G22U U28C, the self-cleavage was 0.02.
G5U C10A G27C gave a self-cleavage of 0.03.
G5U C10A U20A G21U gave a self-cleavage of 0.
Work on G5U C10A U20C G40U C42G yielded a self-cleavage of 0.01.
G5U C10A U20G gave a self-cleavage of 0.02.
For G5U C10G A25G, the self-cleavage was 0.02.
With G5U C10G C13A C46G the self-cleavage was 0.05.
G5U C10G C15U G22C showed a self-cleavage of 0.
Work on G5U C10G C31A yielded a self-cleavage of 0.06.
In the case of G5U C10G G29C, the self-cleavage is reported as 0.03.
G5U C10G U32G C42A showed a self-cleavage of 0.01.
For G5U C10U A11G C23U A25G, the self-cleavage was 0.01.
For G5U C10U A12U C13G G21U, the self-cleavage was 0.03.
With G5U C10U A16U U34G the self-cleavage was 0.02.
In the case of G5U C10U C15G G44U, the self-cleavage is reported as 0.05.
Work on G5U C10U C18G yielded a self-cleavage of 0.04.
Work on G5U C10U G19U A26G G33A C46U yielded a self-cleavage of 0.05.
G5U C10U G19U G21A showed a self-cleavage of 0.05.
Variant G5U C10U G27A has a self-cleavage of 0.12.
Variant G5U C10U G27A G29U G33U U38C has a self-cleavage of 0.03.
With G5U C13A A25G G35A the self-cleavage was 0.01.
G5U C13A C15G G27C C37U showed a self-cleavage of 0.03.
Variant G5U C13A C18A G19C A25C has a self-cleavage of 0.01.
Work on G5U C13A C31G yielded a self-cleavage of 0.07.
In the case of G5U C13A C31G U34C, the self-cleavage is reported as 0.06.
Work on G5U C13A G19U A25G yielded a self-cleavage of 0.04.
For G5U C13A G21A G33C U34G, the self-cleavage was 0.07.
Work on G5U C13A G21U yielded a self-cleavage of 0.15.
G5U C13A G27A gave a self-cleavage of 0.07.
G5U C13A U20C G29U U32G showed a self-cleavage of 0.01.
Variant G5U C13A U38C has a self-cleavage of 0.03.
Work on G5U C13A U43G yielded a self-cleavage of 0.01.
Work on G5U C13G A24C yielded a self-cleavage of 0.05.
Work on G5U C13G A39C yielded a self-cleavage of 0.03.
With G5U C13G G17A the self-cleavage was 0.02.
With G5U C13G G17A G22A U34A the self-cleavage was 0.03.
G5U C13G G27A G33A showed a self-cleavage of 0.09.
In the case of G5U C13G U43G, the self-cleavage is reported as 0.
G5U C13U A14G G40U gave a self-cleavage of 0.07.
In the case of G5U C13U A16U G33U U34C, the self-cleavage is reported as 0.05.
Variant G5U C13U A24C G29U has a self-cleavage of 0.02.
Variant G5U C13U C31G U32C G40A C46A has a self-cleavage of 0.11.
Work on G5U C13U C37A A41C yielded a self-cleavage of 0.14.
G5U C13U G17C U38A showed a self-cleavage of 0.06.
G5U C13U G19A G22C A39C C45U gave a self-cleavage of 0.13.
With G5U C13U G30U C42A the self-cleavage was 0.19.
Work on G5U C13U U28G U34G G44U yielded a self-cleavage of 0.02.
Variant G5U C15A A26C has a self-cleavage of 0.06.
For G5U C15A G17C, the self-cleavage was 0.01.
For G5U C15A G21C A39G, the self-cleavage was 0.03.
With G5U C15A G21C G33C the self-cleavage was 0.02.
G5U C15A G29U G35C gave a self-cleavage of 0.04.
G5U C15A G40C showed a self-cleavage of 0.
With G5U C15A U38A U43G G44A the self-cleavage was 0.01.
Variant G5U C15G A16G A25U has a self-cleavage of 0.03.
Work on G5U C15G C46A yielded a self-cleavage of 0.03.
With G5U C15G G19A C31G U34A G40U the self-cleavage was 0.02.
Variant G5U C15G G21U G36A has a self-cleavage of 0.01.
Work on G5U C15G U34G C46A yielded a self-cleavage of 0.02.
Work on G5U C15U A16C C42U yielded a self-cleavage of 0.06.
Work on G5U C15U A16G C37G yielded a self-cleavage of 0.03.
